Source: a compilation of properties of binary mixtures (doi:10.1021/acs.jced.1c00807)
Some of these densities may be calculated back from excess volumes.

Assay: xn = mol fraction of the nth substance listed
Conditions: 100 kPa

COCCCC[n+]1ccn(C)c1.[Cl-] + O
mass density [kg/m3]
Conditions	288.15 K	293.15 K	298.15 K	303.15 K	308.15 K	313.15 K	318.15 K
x1 = 0.8301	1124.9	–	1118.8	–	1112.8	1109.8	1106.8
x1 = 0.8593	1125.2	1122.2	1119.2	1116.2	–	–	–
x1 = 0.886	1125.5	1122.5	1119.5	–	1113.5	–	1107.5
x1 = 0.9141	1125.8	1122.9	1119.9	1116.9	1113.9	–	1107.8
x1 = 0.9501	–	1123.3	1120.3	1117.3	1114.3	1111.3	1108.3
